Read counts are not given, so values of variants with three or more changes are uncertain.
B1: LINE1-mini (parent)
chain: GGCAGAGCUCAACACAGCGUGGCAAAGUGGCUGUGGCUAGACUGCC

Variants of: B1
Test: self-cleavage, relative activity (ratio to wild type); higher = more cleavage; in vitro, sequencing; the parent is a self-cleaving ribozyme

| Variant | self-cleavage |
| --- | --- |
| GCCAGAGUUCAACUCAGCGUGGCAAAGUGGCUGUGGCUAGACUGGC | 0.13 |
| GCCAGAGCUUAACACAGCGUGGCAAAGUGCCUGUGGCUAGACUGCC | 0.15 |
| GCCAGAGGUCAACACGGCGUGGCAAAGUGGCUGUGGCUAGACUGCC | 0.02 |
| GCCAGAGCUCAAAACAGCGUGGCAAAGUGUCUGUGGUUAGACUGCC | 0.46 |
| GCCAGAGCUAAACACAGCGUGGAAAAGUGCCUGUGGCUAGACUGCC | 0.02 |
| GCCAGAGAUCAACACAGCGUGGCAUAGUGGCUCUGGCUAGGCUGCC | 0.21 |
| GCCAGAGCUAAACACAGCGGGGCAAAGUAGCUGUGGCUAGACUGCC | 0.03 |
| GCCAGAGCUCAAAACAGUAUGGCAAAGUGGCUGUGGCUAGACUGCC | 0.02 |
| GCCAGAGGUCAACACAACGUGGCAAAGUGGUUGUGGCUAGACUGCC | 0.02 |
| GCCAGAGAUCAACACAGCGUGGCAUAGUGGCCGUGGCGAGAUUGAC | 0.02 |
| GCCAGAGCUAAACACAGCGUGGCAUUGUGGCUGUGGCUAGAGUGCC | 0.02 |
| GCCAGAGCUCAACAUAGCGUGGCAAAGUUGCUGUGGCUAGACUGCC | 0.08 |
| GCCAGAGCUAAACACAGCGUGGCAAAGUCGCUGUGGCUAGACUGCC | 0.03 |
| GCUAGAGCUCAACACAGCGUGGCAAAGUGGCUGUCGCUAGACUGCC | 0.2 |
| GCUAGAGCUCAACACAGCUUGGCAAAAUAGCUGUGGCUAGACUGCC | 0.05 |
| GCCAGAGUUGAACACAGCGUGGUAAAGAGGCUGUGGAUUGACUGCC | 0 |
| GCCAGAGCUCAAAACAGCGUGGCUAAGUGGCUGUUGCUAGACUGCC | 0.1 |
| GCCAGAGAUCACCACAGCGUGGCAAAGUGGCUUUGGCUAGACUGCC | 0.03 |
| GCCAGAGCUGAACACAGCGUGGCAACGUGGCAGUGGCUAGACUGCC | 0.01 |
| GCCAGAGCUAAACACAGCAUGGCAAAGUGGCUGCGACUAGACUCCC | 0.01 |
| GCCAGAGGUCAAGCCAGCGUGGCAAAGUGACUGUGGAUAGACUGCC | 0.55 |
| GCCAGAGCUCAACACAGAGCGGCAAAGUGGCUGUGGCUAGACUGCC | 0.02 |
| GCCAGAGCUCAAUACAGCGUGGCAAAGUGGCUGUAGCUGGACUGCC | 0.22 |

| Variant | self-cleavage |
| --- | --- |
| GCCAGAGCUCAAGACAGCGUGGCUAAGUGGCUGUGGCUAGACUGCC | 0.03 |
| GCCAGAGCUCAACACAGGGUGGCAAAUUGGAUGCGGCUAGACUGCC | 0.04 |
| GCCAGAGCUCAACACAGGGUGGCAAAGUGGCUGUGUCUAGACUACC | 0.21 |
| GCCAGAGCUCAACACAGGGUGUAAAAGUGGCUGUGGCUAGACUGCC | 0.03 |
| GCCAGAGCUUAACGCCGCGUGGCAAAGUGGCUGUGGCUAGACUGCC | 0.02 |
| GCCAGAGCUCAACAGAGCGUGGCACAGUGGCUGUGGCUAGACUGCC | 0.02 |
| GCCAGAGUUCAACUCAGCGUGGCAAAGUGGCUGUGGAUAGACUGCC | 0.01 |
| GCCAGAGCUCAAAACAGCGUGGCAGAGUGGCUGUGGCUUGACUCCC | 0.09 |
| GCCAGAGCUCAAAACAGCGUGGCAUAGUGGCUGUGGCUAGACUGCA | 0.01 |
| GCCAGAGCUCAACAGUGCGUGACAAAGUGGAUGUGGCUGGACUGCC | 0.04 |
| GCCAGAGCUCAACAAAGCGUGGUUAAGUGGCUGUGGCUAGACUGCU | 0.01 |
| GCCAGAGAUCCACACAGCGUGGCAAAGUGGCUUUGGCUAGACUGCU | 0.01 |
| GCCAGAGCUUAACACAGCCUGGCAAAGUGGCUGUGGCGAGACUGCC | 0.02 |
| GCCAGAGGUCAACACAGCGUGGCAAAGUGGCUGUGGCUAGACUUCC | 0.03 |
| GCCAGAGCUUAACACAGCGUGGCAAAGUGGCUGUAGCUACACUGCC | 0.02 |
| GCCAGAGGUCAACACAGCGUGGCAAAGUGGCUGUGGCUUGACUGCC | 0.04 |
| GCCAGAGGGCAACACAGCGUGGCAAAGUGGCUGUGGCUAGACUGCC | 0.07 |
| GCCAGAGCUCAACAUAGCGUGAAAAAGUGGCUGUGGAUAGACUGCC | 0.67 |
| GCCAGAGCUGAACACAGCGUGGCAAAGUGGCUGUGGCCAUACUGCC | 0 |
| GCCAGAGCUCAACAGAGCGUGGCAAAGUGGCUGUGGCUAGACCGCC | 0.01 |
| GCCAGAGUUCAACACAGCGUGGCAAAGUGGCUGUGGCUAGUCUGCC | 0.03 |
| GCCAGAGCUAAACACGGCGUGGCAAAGUGGCAGUGGCUAGACUGCC | 0.02 |
| GCCAGAGAUCAACACAGCGUGGCAAAGUGGCUGUGACUAGACUGCC | 0.07 |

| Variant | self-cleavage |
| --- | --- |
| GCCAGAGCUCAACACAGGGUGGAAUAGCGGCUGUGGCUAGACAACC | 0.24 |
| GCCAGAGCUCAACAGAACGUGGCAAUGUGGCUGUGGCUAGACUGCC | 0.08 |
| GCCAGAGCUUAACACAGCGAGGCAAAGUGGAUGUGGCUAGACUGCC | 0.01 |
| GCCAGAGCUCAACAAAGCGGGGCAAAGUGGCUGAGGCUAGACUGCC | 0.03 |
| GCCAGAGGUCAACGCAGCGUGGCACACUGGCUGUGGCUAGACUGGC | 0.01 |
| GCCAGAGCUCAACACAGUGUGGCAAAGUGGCUGUGGCUUGACUGCC | 0.04 |
| GCCAGAGCUAAAAAAAGCGUGGCAAAGUUGCUGUGGCUAGACUGCC | 0.03 |
| GCCAGAGUUCAACUCAUCGGGGCAAGGUGGCUGUGUCUAGACUGCC | 0.09 |
| GCCAGAGCUCAAAACAGCGUGGCAAAGUGGCUGUGGCUAGCCUGCC | 0.04 |
| GCCAGAGCUAAACACAGCUUGGCAGAGUGGCUGUGGCUAGACUGCC | 0.02 |
| GCCAGAGCUCAACACAGAGUGGCAAAGUGGCUGUGGCUAGUCUGCC | 0.02 |
| GCCAGAGCUCAAAACAACUUGGAAAAGUGGCUGUGGCUAGACUGCC | 0.02 |
| GCCAGAGCUCAAAACAGCGUGGCAAAGUGCCUGUGGCUAGACUGCC | 0.24 |
| GCCAGAGAUCAACAUAGCGUGGCAAAGUGGCUGUGGCUAGACUGCC | 0.12 |
| GCCAGAGCUCAAUACAUCGUGGCAAAGAGGCUGUGGUUAGACUGUC | 0.01 |
| GCCAGAGCUCAACACAGAGUUGCAAAGUGGCUGUGGCAAAACUGCC | 0.01 |
| GCCAGAGCUCAACACAGUGUGGCAAAGUGGAUGUGGCUAGACUGCC | 0.04 |
| GCCAGAGCUCAACACAGAGUGGCAAAGUGGCUGUGGCUAGAAUGCC | 0.04 |
| GCCAGAGCUCAAGACAGCCUAGCAAAGUGGAUGUGGCUAGACUGCU | 0.17 |
| GCCAGAGCUCAACAUUGCGUGGCUAAAUGGCUGUAGCUAGACUGCA | 0.01 |
| GCCAGAGCUCAAAACAGCAUGGCAGAGUGGCUGUGGCUAGACUGCC | 0.09 |
| GCCAGAGCUCAAGACAGCGUGGCAAAGAGGCUGUGGCUAGACUGCC | 0.07 |
| GCCAGAGCUCAACAAAGCGUGGCAAAGUGGCUGAGGCUAGACUGCC | 0.04 |

| Variant | self-cleavage |
| --- | --- |
| GCUAGAGCCCAACACAGCGUGGCAAAGUAGCUGUGGCUAGACUGCC | 0.04 |
| GCCAGAGCUCAACAGAGAGCGGCAGAGUGGCUGUGGCUAGAUUGCC | 0.01 |
| GCCAGAGUUUAACACCGAGUGGCGAAGUGGCUGUGGCUAGACUGCC | 0.01 |
| GCCAGAGCUCAACACAGAGAGGCAAAGUGUCUGUGGCUAGACUGCC | 0.12 |
| GCCAGAGCUAAACACAGCGUGGCCAAGUGGCUGGGGCUAGACUGCC | 0.01 |
| GCCAGAGCUCAACAGAGCGUUGCAAAGUAGCUUUGGCUCGACUGGC | 0.01 |
| GCCAGAGAUCUACUCAGCGUGGAAAACUGGCUGUGGCUAGACUGCC | 0.02 |
| GCCAGAGCUGAACAAAGCGUCGCAUAGUGGCAGGGGCUAUACUGCC | 0.01 |
| GCCAGAGUUCAACUAAACGUGGCCAAGUGCCUGUGGCUAGAUUGCC | 0.11 |
| GCCAGAGAUCACCACAGCGUGGCAAAGUGGCUGUGGCUACACUGCC | 0.02 |
| GCCAGAGCUAAACACAGCGUGGCAAAGUGGCUGUGGUUAGACUGCC | 0.06 |
| GCCAGAGUUCAACACAGCGGGGCAAAGGGGCUGUGGCUAGACUGCC | 0.04 |
| GCCAGAGGUCAACACAGCGUGGCAAAGUGACUGUGGCAAGACUGCG | 0 |
| GCCAGAGCUCAAGACAGCAUAGCAAAGUGGCUGUGGCUAGACUGCC | 0.03 |
| GCCAGAGCUCAACACAGAGUGGCAAAGUGGCUGUGGCUAGACCGCC | 0.03 |
| GCCAGAGUUCGACACAGCGUGGCAAAGUUGCUGUGGCUAGCCUGCC | 0.01 |
| GCCAGAGAUCAACACAGCGUGGUAAAGUGGCUGUGGAUAGACUGCC | 0.05 |
| GCCAGAGCUCAAUACAGCGUGGCAAAGUGGCUGUGGCUGGACUGUC | 0.04 |
| GCUAGAGCUCAACACAGCGCGGCAAAGUGUAUGUGGUUAGACUGCC | 0.11 |
| GCCAGAGCUCAAGACAGCGUGGCAAAGUGGCUGUGGGUAGACUACC | 0.07 |
| GCCAGAGAUCCACACAGCGUGGCAAAGUGGCUGUGGCUAGACUGCC | 0.02 |
| GCCAGAGCUUAACACAGCGUGGCAAACUGGCUGUGGCUAGACUGCC | 0 |
| GCCAGAGCUAAACACAGGGUGGCAAAGUGGCUGUGGCUAAACUGCA | 0.03 |

| Variant | self-cleavage |
| --- | --- |
| GCUAGAGCUCAACACAGCUUGGCAAAGUGGCUGUGGCUAGACUGCC | 0.03 |
| GCCAGAGCUCAACAUAGCGUGGCAAAGUGGCUGGGGCUAGACUGCC | 0.09 |
| GCCAGAGCUCAACACAGAGUCGCAAAGUUGAUGUCGUUAGACUGCC | 0.01 |
| GCCAGAGCUUAACACAGCGUGGCAAAGUGGCUGUGGCUAGACUGCA | 0.28 |
| GCCAGAGCUCAACAGAGCGUGGCAAAGUGGCUGUCGCUAGACUGCU | 0.2 |
| GCCAGAGCUAAACACAGCAUGGCAAAUUGGCUGUGACUAGACUGCC | 0 |
| GCCAGAGCUGAACGCAGCGUGGCAAAGUGGCUGUGGCUAGACGGCC | 0.03 |
| GCCAGAGCUCAAUACAGCAUGGCAAAGUGGCUGUGGCUAGACUGCC | 0 |
| GCCAGAGCUAAACACAGCGUGGGAAAGUGGCUGUGGCUAGACUGCA | 0.01 |
| GCCAGAGCUCAACACAGGGUGGCAAAGUCGCUGUGGCUAGACUGCC | 0.16 |
| GCCAGAGCUCAAGACAGCGUGGCAAAGUGGCUGUGGCUAGACUGUC | 0.42 |
| GCCAGAGCUCAAGACAGCGUGGCAAAGUGGCUGUGGCUAGACUGAC | 0.02 |
| GCCAGAGCUCAAUACAGCGUGGCAAAGUGGCCGUGGCUGGACUGCC | 0.04 |
| GCCAGAGCUAAACACAGCGUGGCAAAGAGGCUGUGGCCAGACUGCC | 0.02 |
| GCCAGAGCUCAAGACAGCGUAGCAAAGUGGCUGUGGCUAGACUGCG | 0.2 |
| GCCAGAGCUUAACUCAGCGUGGCAAAGUGGCUGUGGCUAGACUGCC | 0.02 |
| GCCAGAGCUUAACACGGCGUGGCAAAGUGGCUGUGGCUAGACUGCC | 0.02 |
| GCCAGAGCUUAACACAGCGUGACAAAGUGGCUGUGGCUAGACUGCC | 0.11 |
| GCCAGAGCUGCCCACAUCGUGUCAAACUGGAUGGGGCUAGACUGCC | 0 |
| GCCAGAGCUAAACACAGCGGGGCAAAGUGGCUGUGGCUAGACUGCC | 0.02 |

Source: the RNAGym collection of RNA variant scans (doi:10.7554/elife.90254)
